Reference: PubChem BioAssay AID463173 (ICCB-Longwood Screening Facility, Harvard Medical School, 2010)
In all, about 52,000 compounds went through this assay and about 4,300 (8.3%) were called active. Cut-off read from the data, not from the text of the source: active = survival mostly below about 52% (no sharp cut-off); inactive = mostly above about 56%. The list shows a part of the results.

Test system: DeltatarO mutant
Test: S. aureus survival, RN4220 and DeltatarO strains – OD600, teichoic acid synthesis inhibitors, primary screen (AID 463173)
Details: S. aureus RN4220 wild type/DeltatarO growth, OD600, 18 h, active compounds read low, screened at 18.75 µg/mL (by protocol)

Row | SMILES | survival
1 | CCOC(=O)CSc1nc2cc3c(cc2c(=O)n1CCCCCC(=O)NCc1ccc(OC)cc1)OCO3 | inactive: 72%
2 | CC(C)c1ccc(NC(=O)CSC2=Nc3ccccc3C3=NC(CC(=O)NC4CCCCC4)C(=O)N23)cc1 (stereo unspecified) | inactive: 74%
3 | COc1ccc2c(Sc3ccc(Cl)cc3)c(C(=O)N3CCCCC3)[nH]c2c1 | active: 40%
4 | COc1ccc(-c2nc3ccccc3n3c(-c4ccccc4)c4c(=O)n(C)c(=O)n(C)c4c23)cc1 | inactive: 80%
5 | C=CCNC1CCS(=O)(=O)C1 (stereo unspecified) | inactive: 98%
6 | CCCCCCC1CCC(C(=O)NC(C(=O)O)C(C)C)CC1 (stereo unspecified) | inactive: 49%
7 | O=C(CSc1oc(-c2ccco2)nc1S(=O)(=O)c1ccc(Cl)cc1)Nc1ccc(F)cc1 | inactive: 64%
8 | Cc1nc(C)c(C(=O)N/N=C/c2ccc(O)cc2O)cc1C(=O)N/N=C/c1ccc(O)cc1O | inactive: 80%
9 | COc1ccc(N(CC(=O)NCCc2ccc(Cl)cc2)S(=O)(=O)c2c(C)nn(C)c2C)cc1 | inactive: 65%
10 | CCOC(=O)C1CCN(C(=O)c2nn(-c3ccc(OC)cc3)c(=O)c3c2c2ccccc2n3C)CC1 | inactive: 74%
11 | Cc1ccc(Sc2ccc(N3CCCC(C(=O)Nc4ccc(F)cc4F)C3)nn2)cc1 (stereo unspecified) | inactive: 40%
12 | Cc1ccc(-c2noc(-c3nnn(CC(=O)Nc4cc(Cl)ccc4C)c3N)n2)cc1 | inactive: 80%
13 | CC1CCN(S(=O)(=O)c2cc(C(=O)N3CCN(c4ccccc4F)CC3)n(C)c2)CC1 | inactive: 70%
14 | Cc1ccc(CSc2nc3cccnc3n2Cc2ccc(C(=O)NCCc3cccs3)cc2)cc1 | inactive: 135%
15 | Cc1nn(C)c2c1c(C(F)(F)F)cc(=O)n2CC(=O)N1CCC(C)CC1 | inactive: 98%
16 | COc1ccc(CN2CCCN(CC(=O)Nc3ccc4c(c3)OCCO4)S2(=O)=O)cc1 | inactive: 74%
17 | COc1ccc(C2CC(=O)N(CC(=O)Nc3cccc(C)c3C)c3ccccc3S2)cc1OC (stereo unspecified) | inactive: 97%
18 | CCOC(=O)Cn1c(=O)sc2ccccc21 | inactive: 94%
19 | COc1ccccc1CNC(=O)CCCn1c(=O)c2ccccc2n(Cc2ccc(C)cc2)c1=O | inactive: 132%
20 | CCc1cccc(NC(=O)C2CCN(S(=O)(=O)c3cccc(-c4noc(C)n4)c3)CC2)c1 | inactive: 73%
21 | Cc1nc2c(c(C)nn2-c2ccccc2)c(C)c1CCC(=O)NCc1ccccc1 | inactive: 70%
22 | CCN1CCN(c2cc(C)c3cc(NC(=O)c4ccc(OC)c(OC)c4)ccc3n2)CC1 | active: 44%

Row | SMILES | survival
23 | CCN1CCN(Cc2c(O)ccc3cc(-c4ccc(OC)cc4)c(=O)oc23)CC1 | inactive: 69%
24 | COc1ccc(C2c3cccn3CCN2S(=O)(=O)c2ccc([N+](=O)[O-])cc2)cc1 (stereo unspecified) | inactive: 69%
25 | CC(=O)c1cccc(NC(=O)c2nc(-c3ccccc3)n(-c3ccccc3C)n2)c1 | inactive: 76%
26 | COc1ccc(C)cc1Nc1nc(N)c2cc(OC)c(OC)cc2n1 | inactive: 69%
27 | Cc1ccc(-c2n[nH]c(=S)c3ccccc23)cc1S(=O)(=O)N1CCN(C)CC1 | inactive: 95%
28 | CCC1CN(C(=O)C2CCN(S(=O)(=O)c3c(C)noc3/C=C/c3ccccc3F)CC2)c2cc(C)ccc2O1 (stereo unspecified) | inactive: 70%
29 | CCCCn1c(SCC(=O)NCc2ccc(C)cc2)nc2c(sc3ccccc32)c1=O | inactive: 89%
30 | COCCN1CCN(Cc2ccc(C(=O)NC(C)C)cc2)C(=O)C1=O | inactive: 86%
31 | COc1ccc(NC(=O)c2oc3ccccc3c2NC(=O)Cc2cccs2)c(OC)c1 | inactive: 93%
32 | COc1ccc(CNC(=O)C(C)n2c(=O)cc(C)c3c(C)nn(-c4ccccc4)c32)cc1 (stereo unspecified) | inactive: 75%
33 | COC(=O)c1cc2oc3ccccc3c2n1CC(=O)Nc1ccc(C)cc1C | inactive: 68%
34 | CCOC(=O)Cn1c(=O)oc2cc(S(=O)(=O)N3CCN(c4cc(C)ccc4C)CC3)ccc21 | inactive: 68%
35 | CN(C)CCNC(=O)c1ccc2c(c1)N(Cc1c(F)cccc1Cl)C(=O)c1ccccc1S2 | inactive: 118%
36 | Cc1ccn2cc(-c3ccc(C)c(NS(=O)(=O)c4ccc(Cl)cc4)c3)nc2c1 | active: 43%
37 | Cc1ccc(S(=O)(=O)c2nc(-c3cccc(Cl)c3)oc2NCc2ccccc2)cc1 | inactive: 168%
38 | Cc1cc(C)c(NC(=O)Cn2c(=O)n(Cc3ccc(C(=O)NCc4ccco4)cc3)c(=O)c3sccc32)c(C)c1 | inactive: 173%
39 | Cc1c(Cl)ccc2sc(N3CCN(C(=O)CS(=O)(=O)c4ccccc4)CC3)nc12 | inactive: 106%
40 | CCOc1ccc(OCC)c(NS(=O)(=O)c2ccc3c(c2)CCN3C(=O)C2CCC2)c1 | inactive: 79%
41 | O=C(Cc1c(C(=O)O)[nH]c2ccccc12)Nc1cccc(C(F)(F)F)c1 | inactive: 56%
42 | CCCN1CCN(CCCNC(=O)c2c(C)nn(-c3ccc(F)cc3)c2-n2cccc2)CC1 | inactive: 88%
43 | CN1C(=O)/C(=C/c2ccco2)SC1=Nc1cccc(C(=O)O)c1 | inactive: 69%
44 | CC(C)(C)OC(=O)N1CCC2(CC1)C(C#N)=C(N)OC1=C2C(=O)CCC1 | inactive: 80%

Row | SMILES | survival
45 | Cc1ccc(OCC(=O)Nc2ccc(-c3nc4ccccc4o3)cc2)c(C)c1 | inactive: 63%
46 | CC(C)c1ccc(-c2nnn(CC(=O)OC3CCCCC3)n2)cc1 | inactive: 87%
47 | COCCCNC(=O)c1ccc2nc(CCc3ccccc3)oc2c1 | inactive: 81%
48 | CCOC(=O)c1c(NC(=O)c2ccc(C)c(C)c2)sc2c1CCCCC2 | active: 2%
49 | Cn1cnc(S(=O)(=O)N2CCCC(C(=O)Nc3ccc(OC(F)(F)F)cc3)C2)c1 (stereo unspecified) | active: 25%
50 | CCc1ccc(C(=O)NC2=NC(c3ccccc3F)CC(=O)N2)cc1 (stereo unspecified) | inactive: 177%
51 | CCC(=O)N1CCc2cc(S(=O)(=O)NC(C(=O)Nc3cc(OC)cc(OC)c3)C(C)C)ccc21 (stereo unspecified) | inactive: 86%
52 | N#C/C(=C/c1ccc(-c2ccc(Br)cc2)o1)C(=O)NC1CCCCC1 | inactive: 71%
53 | CCc1ccc(N2C(=O)CSC23C(=O)N(Cc2cccc(F)c2)c2ccccc23)cc1 (stereo unspecified) | inactive: 124%
54 | CCOC(=O)c1cccc(NC(=O)c2cc(-c3ccc(Cl)s3)nc3ccccc23)c1 | inactive: 125%
55 | CN=CC1=C(O)C(C(=O)OC)C(C)(C)CC1=O (stereo unspecified) | inactive: 74%
56 | Cc1ccc(C(=O)N2C(C)CCCC2C)c(Cl)c1 (stereo unspecified) | inactive: 70%
57 | O=C(NCCc1ccccc1)c1ccc(CSc2nc3ccncc3n2Cc2ccccc2)cc1 | inactive: 73%
58 | CCN(CC)CCCNC(=O)c1cn(C)c2ccc(S(=O)(=O)N3CCOCC3)cc2c1=O | inactive: 85%
59 | COc1ccc(NC(=O)Cn2ncc3c([nH]c4ccccc43)c2=O)cc1Cl | inactive: 94%
60 | Cc1ccc(NC(=O)CSc2nc(C)cc(C)c2C(=O)Nc2cccc(C)c2)cc1 | inactive: 49%
61 | COc1cc(OC)cc(C(=O)Nc2ccc(S(=O)(=O)Nc3onc(C)c3C)cc2)c1 | inactive: 75%
62 | Cc1ccc(-n2c3c(cc(-c4nc(-c5ccc(Cl)cc5)cs4)c2=O)C(=O)CC(C)(C)C3)cc1 | inactive: 79%
63 | CCOC(=O)c1c(C)[nH]c(CCC(=O)Nc2cc(C)cc(C)c2)c1C | inactive: 113%
64 | O=C(Cn1nc(C(F)(F)F)c2c1CCCC2)Nc1ccc(Cl)cc1 | inactive: 54%
65 | COc1cccc(CNC(=O)CN2C(=O)CCn3nc(-c4cn(C)c5ccccc45)cc32)c1OC | inactive: 76%
66 | COc1ccc(N2CC(C(=O)NC3=NCCS3)CC2=O)cc1 (stereo unspecified) | inactive: 100%

Row | SMILES | survival
67 | COc1ccc(OC)c(CNC(=O)c2cccc(NC(=O)N3CCSc4ncccc43)c2)c1 | inactive: 86%
68 | CC(C)Sc1ncc(Cl)c(C(=O)Nc2ccc(S(=O)(=O)N3CCCCC3C)cc2)n1 (stereo unspecified) | inactive: 94%
69 | O=c1c2oc3ccccc3c2n(Cc2cccc(C(F)(F)F)c2)c(=O)n1Cc1ccc2c(c1)OCO2 | inactive: 108%
70 | CCC(C(=O)NCc1ccccc1)n1ncn2c(cc3occc32)c1=O (stereo unspecified) | inactive: 91%
71 | CCC(=O)N1CCN(c2ccc(NC(=O)c3ccccc3)cc2)CC1 | inactive: 85%
72 | CCOC(=O)c1ccc2ncc(C(=O)OCC)c(Nc3ccc(C)c(Br)c3)c2c1 | active: 39%
73 | Cc1cccc(C(=O)Nc2cccc(C(=O)OCc3cc(=O)n4ccsc4n3)c2)c1 | inactive: 66%
74 | Cc1cc(C(F)F)n2nc(C(=O)Nc3ccc(C)c(C)c3)nc2n1 | inactive: 99%
75 | COc1ccc(Br)cc1CNC(=O)CN1C(=O)CSc2ccc(S(=O)(=O)N3CCOCC3)cc21 | inactive: 75%
76 | Cc1ccc(NC(=O)c2cc3c(=O)n(Cc4cccnc4)ccc3nc2C)cc1F | inactive: 92%
77 | Cn1c(CNc2nc(-c3ccccc3)cs2)nnc1SCC(=O)c1ccccc1 | active: 51%
78 | COc1ccc(OC(C)C(=O)NCc2nc(-c3ccc(Cl)cc3)no2)cc1 (stereo unspecified) | inactive: 75%
79 | CN(C)c1ccc(/C=C(/NC(=O)c2ccccc2)C(N)=O)cc1 | inactive: 86%
80 | c1cc(N2CCOCC2)ccc1Nc1nc2nonc2nc1Nc1ccc(N2CCOCC2)cc1 | inactive: 100%
81 | Cc1ccc(NC(=O)Cn2cc(S(=O)(=O)N3CCCC3)c(S(=O)(=O)N3CCCC3)c2)c(C)c1 | inactive: 94%
82 | O=C(O)CN1C(=O)c2ccc(Oc3ccc4c(c3)C(=O)N(CC(=O)O)C4=O)cc2C1=O | inactive: 90%
83 | O=C(NCCc1ccc(Cl)cc1)c1cccn1-c1nnc(N2CCCC2)s1 | inactive: 124%
84 | C=CCNC(=O)CN1C(=O)COc2ccccc21 | inactive: 100%
85 | O=C(c1cccnc1Nc1cccc(Cl)c1)N1CCCCC1 | inactive: 108%
86 | COc1ccc(C(=O)c2cn(CC(=O)Nc3ccc4c(c3)OCO4)c3ccc(OC)cc3c2=O)cc1 | inactive: 76%
